Results published in the antibiotic and cytotoxicity screens of Wong et al. (2023).
Some of the results follow.

Key:
[1] = tested on: HSkMC (human skeletal muscle cells); assay: cytotoxicity call (relative viability < 0.9); details: 10 µM
[2] = tested on: HepG2; assay: cytotoxicity call (relative viability < 0.9); details: 10 µM
[3] = tested on: S. aureus RN4220; assay: growth inhibition call (relative growth <= 0.2); details: 50 µM

C[C@@H]1CN([C@@H](C)CO)C(=O)c2cccc(NC(=O)CCCCCC(=O)Nc3ccccc3N)c2O[C@H]1CN(C)Cc1ccccc1
inactive: cytotoxicity call [1] | cytotoxicity call [2] | growth inhibition call [3]

CC(C)NC(=O)N(C)C[C@H]1Oc2ccc(NC(=O)c3ccncc3)cc2CC(=O)N([C@@H](C)CO)C[C@H]1C
inactive: cytotoxicity call [1] | cytotoxicity call [2] | growth inhibition call [3]

Cc1noc(C)c1S(=O)(=O)N(C)C[C@H]1Oc2ccc(NS(=O)(=O)c3ccc(Cl)cc3)cc2CC(=O)N([C@@H](C)CO)C[C@H]1C
inactive: cytotoxicity call [1] | cytotoxicity call [2] | growth inhibition call [3]

Cc1noc(C)c1S(=O)(=O)N(C)C[C@@H]1OCCCC[C@@H](C)Oc2ccc(NS(C)(=O)=O)cc2C(=O)N([C@H](C)CO)C[C@@H]1C
inactive: cytotoxicity call [1] | cytotoxicity call [2] | growth inhibition call [3]
